Here are results for one molecule from the supplement of paper PMC8728848.

The list shows a part of the results.

Common to all, as to assay: glycan array binding signal (z-score within array); higher = stronger binding
Holding throughout (settings): glycan notation: IUPAC condensed, linker removed

For assay [1], the target named is Gal(b1-4)GalNAc(b1-3)[Fuc(a1-2)]Gal(b1-4)GlcNAc. Summed up:
(§1)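 Glycan array data were curated from 3228 arrays in the Consortium for Functional Glycomics database and kept only where the protein sequence was available. Glycan names were converted to IUPAC-condensed notation, and columns mapping to the same glycan were averaged. The binding signal is a within-array Z-score, averaged across arrays of the same protein sequence at different concentrations or buffers and across linkers. Negative Z-scores can be read as non-binding.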

The target in another assay is Gal(b1-4)Glc. In outline:
as §1

A further assay has as its target Gal(b1-4)Glc6S. Summed up: as §1
In the next assay the target is Gal(b1-4)GlcNAc. Summed up:
as §1

The target in assay [2] is Gal(b1-4)GlcNAc(a1-6)Gal(b1-4)GlcNAc. Summed up:
as §1

For another assay, the target named is Gal(b1-4)GlcNAc(b1-2)Man. In outline: as §1
The target in assay [3] is Gal(b1-4)GlcNAc(b1-2)Man(a1-3)Man(b1-4)GlcNAc(b1-4)GlcNAc. In outline:
as §1

Assay [4] has as its target Gal(b1-4)GlcNAc(b1-2)Man(a1-3)[Gal(b1-4)GlcNAc(b1-2)Man(a1-6)]Man(b1-4)GlcNAc(b1-4)GlcNAc. Summed up: as §1
The target in assay [5] is Gal(b1-4)GlcNAc(b1-2)Man(a1-3)[Gal(b1-4)GlcNAc(b1-2)Man(a1-6)]Man(b1-4)GlcNAc(b1-4)[Fuc(a1-6)]GlcNAc. In outline:
as §1

Assay [6] addresses Gal(b1-4)GlcNAc(b1-2)Man(a1-3)[Gal(b1-4)GlcNAc(b1-2)Man(a1-6)][Gal(b1-4)GlcNAc(b1-4)]Man(b1-4)GlcNAc(b1-4)[Fuc(a1-6)]GlcNAc. In outline: as §1
Assay [7] has as its target Gal(b1-4)GlcNAc(b1-2)Man(a1-3)[Gal(b1-4)GlcNAc(b1-2)Man(a1-6)][GlcNAc(b1-4)]Man(b1-4)GlcNAc(b1-4)[Fuc(a1-6)]GlcNAc. Summed up: as §1
In assay [8] the target is Gal(b1-4)GlcNAc(b1-2)Man(a1-3)[GlcNAc(b1-2)Man(a1-6)]Man(b1-4)GlcNAc(b1-4)GlcNAc. Summed up:
as §1

In assay [9] the target is Gal(b1-4)GlcNAc(b1-2)Man(a1-3)[GlcNAc(b1-4)][Gal(b1-4)GlcNAc(b1-2)Man(a1-6)]Man(b1-4)GlcNAc(b1-4)GlcNAc. Summed up:
as §1

Assay [10] has as its target Gal(b1-4)GlcNAc(b1-2)Man(a1-3)[Man(a1-6)]Man(b1-4)GlcNAc(b1-4)GlcNAc. Summed up: as §1
The target in assay [11] is Gal(b1-4)GlcNAc(b1-2)Man(a1-6)Man(b1-4)GlcNAc(b1-4)GlcNAc. In outline:
as §1

The target in assay [12] is Gal(b1-4)GlcNAc(b1-2)Man(a1-6)[GlcNAc(b1-2)Man(a1-3)]Man(b1-4)GlcNAc(b1-4)GlcNAc. Summed up: as §1
Assay [13] has as its target Gal(b1-4)GlcNAc(b1-2)Man(a1-6)[Man(a1-3)]Man(b1-4)GlcNAc(b1-4)GlcNAc. Summed up: as §1
Assay [14] deals with Gal(b1-4)GlcNAc(b1-2)[Gal(b1-4)GlcNAc(b1-4)]Man(a1-3)[Gal(b1-4)GlcNAc(b1-2)Man(a1-6)]Man(b1-4)GlcNAc(b1-4)GlcNAc. In outline:
as §1

The target in assay [15] is Gal(b1-4)GlcNAc(b1-2)[Gal(b1-4)GlcNAc(b1-4)]Man(a1-3)[Gal(b1-4)GlcNAc(b1-2)[Gal(b1-4)GlcNAc(b1-6)]Man(a1-6)]Man(b1-4)GlcNAc(b1-4)GlcNAc. Summed up: as §1
Assay [16] concerns the target Gal(b1-4)GlcNAc(b1-2)[Gal(b1-4)GlcNAc(b1-4)]Man(a1-3)[GlcNAc(b1-4)][Gal(b1-4)GlcNAc(b1-2)Man(a1-6)]Man(b1-4)GlcNAc(b1-4)GlcNAc. In outline: as §1
Assay [17] concerns the target Gal(b1-4)GlcNAc(b1-2)[Gal(b1-4)GlcNAc(b1-4)]Man(a1-3)[GlcNAc(b1-4)][Gal(b1-4)GlcNAc(b1-2)[Gal(b1-4)GlcNAc(b1-6)]Man(a1-6)]Man(b1-4)GlcNAc(b1-4)GlcNAc. In outline: as §1
The target in assay [18] is Gal(b1-4)GlcNAc(b1-2)[Gal(b1-4)GlcNAc(b1-6)]Man(a1-6)[Gal(b1-4)GlcNAc(b1-2)Man(a1-3)]Man(b1-4)GlcNAc(b1-4)GlcNAc. Summed up:
as §1

B1: CFEM-SCL (Saccharomyces cerevisiae), O13547 (protein)
chain: MRATTLLSSVVSLALLSKEVLATPPACLLACVAQVGKSSSTCDSLNQVTCYCEHENSAVKKCLDSICPNNDADAAYSAFKSSCSEQNASLGD
As to B1, the “glycan array binding signal (z-score)” value in [1] is -0.013; with Gal(b1-4)Glc, -0.031; with Gal(b1-4)Glc6S, 0.015; in the assay with Gal(b1-4)GlcNAc it was -0.022; in [2] it was 0.404; in the assay with Gal(b1-4)GlcNAc(b1-2)Man, -0.314. In addition, the “glycan array binding signal (z-score)” value in [3] was -0.171; in [4] it was -0.241; in assay [5], -0.159; in assay [6] it was -0.291; in [7], -0.184; in assay [8], -0.194. Besides, the “glycan array binding signal (z-score)” value in assay [9] was -0.229; in assay [10], -0.238; in [11] it was -0.313; in assay [12], -0.271; in assay [13] it was -0.166; in assay [14], -0.225. In addition, the “glycan array binding signal (z-score)” value in assay [15] is -0.199; in [16] it was -0.261; in assay [17], -0.078; in assay [18], -0.253.
